Test results taken from PubChem BioAssay AID743255 (National Center for Advancing Translational Sciences (NCATS), 2014).
About 910 (0.23%) of roughly 390,000 compounds were called active. About 5% were inconclusive and are not listed. The call rests on the fitted dose curve; in most records, active means well fitted inhibition curve with a large enough effect; inconclusive means small, poorly fitted or top-dose-only effect; inactive means no such curve, though single readings can be large or run the other way. Only a part is listed here, and it is no random draw.

These compounds were tested against Ubiquitin carboxyl-terminal hydrolase 1 (Homo sapiens) (UniProt O94782) (assay: Inhibitors of USP1/UAF1: Primary Screen). Conditions: recombinant USP1/UAF1, Ub-Rhodamine cleavage fluorescence; activity change, negative = inhibition: at 57.1 µM (top of the series).
Sequence of UniProt O94782 (O94782 whole entry, looked up): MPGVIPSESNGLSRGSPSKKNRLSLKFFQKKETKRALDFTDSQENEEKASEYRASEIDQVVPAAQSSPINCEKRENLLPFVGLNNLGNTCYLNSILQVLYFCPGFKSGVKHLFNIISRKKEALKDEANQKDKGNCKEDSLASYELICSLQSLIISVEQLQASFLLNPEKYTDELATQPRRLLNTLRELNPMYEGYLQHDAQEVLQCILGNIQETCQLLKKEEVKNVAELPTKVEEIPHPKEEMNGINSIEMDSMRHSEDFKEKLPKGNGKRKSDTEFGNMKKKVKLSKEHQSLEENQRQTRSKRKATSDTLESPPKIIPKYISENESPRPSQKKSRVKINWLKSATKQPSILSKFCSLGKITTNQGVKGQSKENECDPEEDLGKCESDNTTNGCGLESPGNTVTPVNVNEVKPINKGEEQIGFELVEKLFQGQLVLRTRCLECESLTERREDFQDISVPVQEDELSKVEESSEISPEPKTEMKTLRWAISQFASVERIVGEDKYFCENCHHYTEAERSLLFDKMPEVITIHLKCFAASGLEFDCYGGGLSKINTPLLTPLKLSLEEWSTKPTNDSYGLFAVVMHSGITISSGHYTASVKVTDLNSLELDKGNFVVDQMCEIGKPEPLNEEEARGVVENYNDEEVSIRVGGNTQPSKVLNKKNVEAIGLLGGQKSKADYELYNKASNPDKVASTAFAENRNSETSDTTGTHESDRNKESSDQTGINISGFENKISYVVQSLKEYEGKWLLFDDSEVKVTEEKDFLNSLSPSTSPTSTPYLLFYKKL
Summary of the method: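 1 nM enzyme complex + cpd, 15 min RT; start with Ub-Rho 150nM final; kinetic fluorescence ex 480/em 540, 6 reads q60 s. Buffer 50mM HEPES pH 7.8, 0.5mM EDTA, 0.1 mg/ml BSA, 1mM TCEP, 0.01% Tween-20.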
Further: nearly all actives have a fitted effect of over 60% in size.
On the % scale 0 is the no-effect control and ±100 the full control effect; potency means the concentration at half of the fitted maximal effect.

Row | SMILES | activity change, negative = inhibition | Potency
1 | C[C@H]1CCC[C@@]2(O[C@@H](CCO)C[C@@H](O)[C@@H]2O)O1 | inactive: -23.4% | –
2 | CCN(CC)c1ccc2cc(-c3nc4ccccc4[nH]3)c(=O)oc2c1 | inactive: -19.7% | –
3 | C=CCOC(=O)C1=C[C@@H](c2ccc(C(F)(F)F)cc2)C[C@@H](OCCCCO)O1 | inactive: -28.2% | –
4 | C[C@H](CO)N1C[C@H](C)[C@@H](CN(C)C(=O)c2cc(-c3ccccc3)on2)OCc2cn(nn2)CCCC1=O | inactive: -10.7% | –
5 | COC(=O)N(C)C[C@@H]1OCc2cnnn2CCCC(=O)N([C@@H](C)CO)C[C@@H]1C | inactive: 0.0876% | –
6 | O=c1oc2cc(O)ccc2cc1-c1nnc(Nc2ccccc2F)s1 | inactive: 143% | –
7 | C[C@H]1CCC[C@@]2(O[C@H](CCO)C[C@@H](O)[C@@H]2O)O1 | inactive: -9.48% | –
8 | O=C1/C(=C\c2ccccn2)SC(=S)N1Nc1ncc(C(F)(F)F)cc1Cl | inactive: -11.7% | –
9 | OCC[C@H]1C[C@H](O)[C@@H](O)[C@]2(CCCO2)O1 | inactive: 12.2% | –
10 | COC(=O)C[C@@H]1C[C@H]2c3cc(NC(=O)CC4CC4)ccc3O[C@H]2[C@@H](CO)O1 | inactive: -19.1% | –
11 | C[C@@H]1CN([C@H](C)CO)C(=O)CCCn2nncc2CO[C@H]1CN(C)C(=O)c1ccc2ccn(C)c2c1 | inactive: 1.06% | –
12 | c1ccc(-n2ncc3c2ncn2nnnc32)cc1 | inactive: 58.3% | –
13 | Nc1cc(-c2ccncc2)c[nH]c1=O | – | active: 39.8 µM
14 | CC(C)(C)OC(=O)C[C@@H]1C/C=C\C[C@@H](CC(=O)N[C@H](CO)Cc2ccccc2)C(=O)NCCOC1=O | inactive: -21.1% | –
15 | COc1cc(NC(=O)CSc2ncccc2C(=O)OC(C)C)cc(OC)c1 | inactive: 0.903% | –
16 | COC1=C(N)C(=O)c2nc(C)ccc2C1=O | – | active: 7.08 µM
17 | C=CCc1ccccc1OCC(O)CN1CCN(c2ccccc2OC)CC1 (centres undefined) | inactive: -13.9% | –
18 | O=C(Cn1cnc2ccccc2c1=O)NCCC(=O)Nc1ccc(F)cc1 | inactive: -19.7% | –
19 | CCN(CC)c1ccc(/C=C/C(=O)C2C(=O)C=C(C)OC2=O)cc1 (centres undefined) | – | active: 4.47 µM
20 | COc1cccc(NC(=O)N(C)C[C@@H]2OCc3cnnn3CCCC(=O)N([C@H](C)CO)C[C@@H]2C)c1 | inactive: -16.9% | –
21 | CCOC(=O)c1ccc(-n2c(CCC(=O)O)ccc2-c2ccccc2)cc1 | inactive: -8.7% | –
22 | C[C@H](CO)N1C[C@H](C)[C@@H](CN(C)C(=O)c2ccc3ccn(C)c3c2)OCc2cnnn2CCCC1=O | inactive: -14.4% | –
23 | Cn1nc(C(=O)N2CCN(c3ccccc3F)CC2)c2c1-c1ccccc1S(=O)(=O)C2 | inactive: -9.89% | –

Row | SMILES | activity change, negative = inhibition | Potency
24 | CC(C)CSC1=NSC2=NC(=O)/C(=C\c3coc4ccccc4c3=O)C(=N)N12 | – | active: 4.47 µM
25 | COc1cccc(S(=O)(=O)N(C)C[C@H]2Oc3cc(Br)ccc3S(=O)(=O)N([C@@H](C)CO)C[C@H]2C)c1 | – | active: 17.8 µM
26 | Cc1cccc(N(C(=O)c2sc(C)nc2C)C(C(=O)NCc2ccco2)c2ccccc2)c1 (centres undefined) | inactive: 31.4% | –
27 | COC(=O)c1ccc(-n2nnc(-c3nc(-c4ccc5c(c4)OCO5)no3)c2C)cc1 | inactive: 38.1% | –
28 | Cc1ccc(-n2nnnc2C(=Cc2ccc(N(C)C)cc2)c2nnnn2-c2ccc(C)cc2)cc1 | – | active: 22.4 µM
29 | O=C1N[C@@H](c2ccccc2)COC(=O)[C@H](Cc2ccc(F)cc2)CC/C=C/C[C@H]1CC(=O)N(CCO)Cc1ccccc1 | inactive: -22.8% | –
30 | COC(C[C@H](O)C[C@H](O)COCc1ccccc1)OC | inactive: -17.8% | –
31 | Cc1[nH]n(-c2ccccc2)c(=O)c1C=Nc1ccc2[nH]c(=O)[nH]c2c1 | inactive: 96.3% | –
32 | C[C@H]1COC(=O)[C@H](CC(=O)OC(C)(C)C)C/C=C\C[C@@H](CC(=O)NCCO)C(=O)N1 | inactive: -3.49% | –
33 | O=C1CSC(c2cccs2)N1c1ccccc1 (centres undefined) | inactive: 41% | –
34 | C[C@@H]1CN([C@H](C)CO)C(=O)CCCn2nncc2CO[C@H]1CN(C)Cc1ccccc1C(F)(F)F | inactive: -17.8% | –
35 | OCC[C@@H]1C[C@H](O)[C@@H](O)[C@]2(OCc3ccccc32)O1 | inactive: -8.85% | –
36 | C#CCNC(=O)C1=C[C@@H](c2ccc3c(c2)OCO3)C[C@@H](OCc2ccc(CO)cc2)O1 | inactive: -1.45% | –
37 | O=C1CSC(=S)N1/N=C/c1cc(Br)c(O)c(Br)c1 | – | active: 17.8 µM
38 | CCOC(=O)c1c(C)sc(-c2c(-c3ccc4c(c3)OCCO4)[nH]c3c2c(=O)n(C)c(=O)n3C)c1O | – | active: 15.8 µM
39 | O=C1NC(=S)N/C1=C\c1cccc([N+](=O)[O-])c1 | inactive: -6.35% | –
40 | COc1ccccc1CN1CCN(Cc2nc(-c3ccc(C)cc3)oc2C)CC1 | inactive: 35% | –
41 | COc1ccc(N2CCN(CCCNC(=O)Nc3ccccc3)CC2)cc1 | inactive: -12.2% | –
42 | N=C1/C(=C/c2coc3ccccc3c2=O)C(=O)N=C2SC(c3ccco3)=NN12 | inactive: 178% | –
43 | CC(=O)OCC(=O)[C@@]1(O)CC[C@H]2[C@@H]3CCC4=CC(=O)C=C[C@]4(C)[C@H]3C(=O)C[C@@]21C | inactive: -19.5% | –
44 | CC[C@@H]1C/C=C\Cc2ccccc2[C@@H](C(=O)C[C@@H](O)CC(C)=O)OC1=O | inactive: -21.5% | –
45 | CCCCOc1cc(C(=O)NCCN(CC)CC)c2ccccc2n1 | inactive: -14.2% | –
46 | Cn1nc(C(=O)N2CCc3ccccc3C2)c2ccccc2c1=O | inactive: 29.6% | –

Row | SMILES | activity change, negative = inhibition | Potency
47 | COc1ccc(NC(=O)CN(C)S(=O)(=O)c2ccc3c(c2)CCCN3C(C)=O)cc1 | inactive: -17.2% | –
48 | N#CC(=C1NC(=O)c2ccccc21)c1nc2ccccc2n1CCO | inactive: 62.5% | –
49 | COc1ccc(S(=O)(=O)Nc2cccc3c2O[C@H](CN(C)Cc2ccc(C(=O)O)cc2)[C@@H](C)CN([C@H](C)CO)C3=O)cc1 | inactive: -9.74% | –
50 | CC(C(=O)Nc1cc(C(F)(F)F)ccc1N1CCOCC1)N1C(=O)C2CC=CCC2C1=O (centres undefined) | inactive: -0.28% | –
51 | COc1ccc2oc(=O)c(-c3nnc(-c4ccc(C)cc4)o3)cc2c1 | inactive: 31.5% | –
52 | C=CCC[C@@H](Cc1ccc(F)cc1)C(=O)OC[C@@H]1CCCN1C(=O)[C@@H](CC=C)CC(=O)N[C@@H](CO)Cc1ccccc1 | inactive: -27.2% | –
53 | CCOc1ccc(CNC(=O)CCCc2cn(C)c3ccccc23)cc1OC | inactive: -1.16% | –
54 | COc1ccc2c(c1)Cc1sc(NC(=O)c3cccc(C)c3)nc1-2 | – | active: 35.5 µM
55 | CC(C)NCC(O)COc1cccc2ccccc12 (centres undefined) | inactive: -23% | –
56 | O=C(COc1ccccc1Cl)Nc1nnc(S(=O)(=O)N2CCCCCC2)s1 | inactive: 6.7% | –
57 | COC(=O)[C@@H]1[C@H]2C[C@H]3c4[nH]c5ccccc5c4CCN3C[C@@H]2CC[C@@H]1O | – | inactive
58 | O=c1[nH]c2ccccc2nc1/C=C(\O)c1cccs1 | – | active: 15.8 µM
59 | CC1=CC(=C2N=C(c3ccccc3)OC2=O)C=C(C)O1 | inactive: 115% | –
60 | CCOc1cccc(CNc2ccc(O)cc2)c1OCc1ccc(Cl)cc1 | – | active: 25.1 µM
61 | O=C(C1=C[C@H](c2ccc(C(F)(F)F)cc2)C[C@H](OCc2ccc(CO)cc2)O1)N1CCN(Cc2ccccc2)CC1 | inactive: -29.7% | –
62 | Cn1nc(C(=O)NCc2ccccc2)c2c1-c1ccccc1S(=O)(=O)C2 | inactive: -10.2% | –
63 | O=C1NC[C@@H](c2ccccc2)OC(=O)[C@@H](Cc2ccc(F)cc2)CC/C=C/C[C@@H]1CC(=O)N(CCO)Cc1ccccc1 | inactive: -21.8% | –
64 | COC(=O)[C@@]12CCCCN1[C@H](c1ccc(-c3ccc(C(C)=O)cc3)cc1)[C@@H]1C(=O)N(C)C(=O)[C@@H]12 | inactive: -9.01% | –
65 | COc1ccc(OC)c(NC(=O)CCNS(=O)(=O)c2ccc3c(c2)oc(=O)n3C)c1 | inactive: -2.83% | –
66 | COc1ccc(CN(C)C[C@@H]2OCc3cnnn3CCCC(=O)N([C@@H](C)CO)C[C@H]2C)cc1 | inactive: -4.03% | –
67 | O=C(NCCn1cc(SCc2ccc(F)cc2)c2ccccc21)c1c(F)cccc1F | inactive: -18.5% | –
68 | Cc1ccc(Cn2c(=O)n(-c3ccccc3)c(=O)c3ccc(C(=O)NCc4ccco4)cc32)cc1 | inactive: -1.39% | –
69 | CC(=O)c1ccc(NS(=O)(=O)c2cc(-c3cnc(C4CC4)o3)ccc2C)cc1 | inactive: -28.2% | –

Row | SMILES | activity change, negative = inhibition | Potency
70 | CCCCCN1C(=O)/C(=C/c2c(N3CCc4ccccc4C3)nc3ccccn3c2=O)SC1=S | inactive: 18.2% | –
71 | Cc1cccc(C)c1NC(=O)CN1C(=O)CCSc2ccc(S(=O)(=O)N3CCCC3)cc21 | inactive: -28.2% | –
72 | COc1ccc(-c2nc(SCC(=O)NC3CCCC3)c(-c3ccc(OC)cc3)[nH]2)cc1 | inactive: -0.186% | –
73 | COc1ccc(CNC(=O)Cn2nc(C)n3cccc3c2=O)cc1 | inactive: 19.4% | –
74 | CCOc1cc(CNS(=O)(=O)c2ccc3c(c2)CC(=O)N3C)cc(OCC)c1OCC | inactive: -23.8% | –
75 | CCOc1ccc(CNC(=O)c2ccc(Sc3ccc(Cl)cc3)c(NC(C)=O)c2)cc1 | inactive: -26.8% | –
76 | Cc1ccccc1C(=O)c1cccn1CC(=O)NCc1ccc(Cl)cc1 | inactive: -17.6% | –
77 | Cn1c(-c2c(N)n(CCc3ccccc3)c3nc4ccccc4nc23)nc2ccccc21 | – | active: 28.2 µM
78 | C[C@H](CO)N1C[C@H](C)[C@@H](CN(C)Cc2ccccc2)OCc2cnnn2CCCC1=O | inactive: 0.281% | –
79 | COc1ccc(NC(=O)N(C)C[C@H]2Oc3ccc(NC(=O)CCN4CCOCC4)cc3C(=O)N([C@H](C)CO)C[C@@H]2C)cc1 | inactive: -9.86% | –
80 | COc1ccc(NC(=O)CSc2nc3ccccc3nc2N2CCCCC2)cc1 | inactive: -21.5% | –
81 | Cc1ccc(N2C(=O)c3cccc4c(N)ccc(c34)C2=O)c2cccnc12 | – | active: 25.1 µM
82 | C[C@@H]1CCC[C@]2(O[C@H](CCO)C[C@@H](O)[C@@H]2O)O1 | inactive: 5.76% | –
83 | COc1ccc(C(CNC(=O)c2oc3cc(C)c(C)cc3c2C)N2CCCCC2)cc1 (centres undefined) | inactive: -14% | –
84 | O=C1OC[C@H]2CCCN2C(=O)[C@@H](CC(=O)N(CCO)Cc2ccccc2)C/C=C\CC[C@@H]1Cc1ccc(F)cc1 | inactive: -31.2% | –
85 | O=C(CCCN1C(=O)/C(=C\c2cccs2)SC1=S)Nc1cc([N+](=O)[O-])ccc1O | inactive: -0.805% | –
86 | COCCn1c2nc(=O)n(-c3ccccc3)c(=O)c-2nc2ccccc21 | – | active: 28.2 µM
87 | CC(=Nc1ccc(C)cc1C)c1sc2ccccc2c1O | – | active: 35.5 µM
88 | CC[C@@H]1C/C=C\Cc2ccccc2[C@H](C(=O)C[C@@H](O)CC(C)=O)OC1=O | inactive: -2.74% | –
89 | CCC(=O)N1CCc2cc(S(=O)(=O)NC(Cc3ccccc3)C(=O)O)ccc21 (centres undefined) | inactive: -7.43% | –
